Measured values: PubChem BioAssay AID686971 (National Center for Advancing Translational Sciences (NCATS), 2013)
“And” between values parts separate entries of the source, which are not always exact repeats. Identical values can stand only once. In all, about 360,000 compounds went through this assay and about 7,500 (2.1%) were called active. Inconclusive results, whose numbers are uncertain, are shown with a selection of clear calls. Calls come from the whole dose curve; as a rule, active = well fitted cell-killing curve with a large enough effect; inconclusive = small, poorly fitted or top-dose-only effect, or effect the other way, or another doubt; inactive = no such curve, though single readings can be large or run the other way. Potencies beside an inconclusive call are fits to weak or partial responses and may not hold up.

Test: qHTS for induction of synthetic lethality in tumor cells producing 2HG: qHTS for the HT-1080-IDH1KD cell line;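 for activity, negative = toxicity: 0% = DMSO wells and -100% = cell-free medium wells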
Conditions: HT-1080 IDH1 knockdown viability, ATP luminescence, 48 h; activity, negative = toxicity: at 46.1 µM (top of the series) unless noted
In short: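 CellTiter-Glo luminescence after 48 h compound exposure at 37 degrees C of IDH1-knockdown HT-1080 cells in 5% FBS RPMI. %Activity scaled between DMSO wells and cell-free media wells, with curves fitted and assigned curve classes.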
Potency is the fitted concentration of half-maximal effect; tags give direction and shape of the fitted curve.

Row | SMILES | activity, negative = toxicity | Potency
1 | CN(c1ccc(F)cc1)S(=O)(=O)c1ccc(Cl)c(C(=O)OCC(=O)NCc2ccco2)c1 | inactive: 2.4% | 
2 | Cc1ccc(C)c(N(C(=O)Cn2nnc(-c3cccs3)n2)C(C(=O)NC2CCCC2)c2ccncc2)c1 (centres undefined) | inactive: 17.7% | 
3 | Cc1ccc(OCCNC(=O)C(=O)NCc2ccco2)cc1 |  | active: 4.11 µM
4 | c1ccc2c(CCNc3ncnc4nc[nH]c34)c[nH]c2c1 |  | inconclusive: 6.51 µM [cytotoxic, partial curve]
5 | Cc1cc(NS(=O)(=O)c2ccc(Nc3nc(-c4sc(N)nc4C)cs3)cc2)no1 | inactive: -19.5% | 
6 | COc1ccc2nc(-c3ccco3)c(-c3ccco3)nc2c1 | inactive: -1.65% | 
7 | COc1ccc(Nc2cc(C)nc3c(C)cccc23)cc1OC |  | inconclusive: 20.6 µM [cytotoxic, partial curve]
8 | CN1c2ccc(C=O)c3c(C=O)ccc(c23)N(C)C1(C)C |  | active: 11.6 µM
9 | CC(C)(O)C#Cc1ccc(C(=O)Nc2ccc3c(c2)OCO3)s1 |  | active: 7.31 µM
10 | COc1ccccc1C1CCN(c2cc(O)ccc2[N+](=O)[O-])CC1 |  | inconclusive: 18.4 µM [cytotoxic, single point]
11 | COc1ccc(-c2coc3c(C(=O)Nc4ccc(OC)nc4)cccc23)c(C)c1 |  | inconclusive: 29.1 µM [cytotoxic, single point]
12 | O=S(=O)(NCc1ccccc1)NCc1ccc(Cl)cc1Cl | inactive: -4.11% | 
13 | Cc1ccc(Cn2nnc3c(=O)[nH]c(C4CCCN(C(=O)Nc5ccc(F)cc5F)C4)nc32)cc1 (centres undefined) |  | inconclusive: 10 µM [cytotoxic, partial curve]
14 | Nc1nn2cc(-c3ccccc3)nc2c2ccccc12 |  | inconclusive: 32.6 µM [cytotoxic, single point]
15 | Cc1onc(-c2ccc3c(c2)OCO3)c1-c1ccc2[nH]ccc2c1 |  | inconclusive: 29.1 µM [cytotoxic, single point]
16 | N#Cc1ccc(-c2csc(NNC(=O)c3ccccc3)n2)cc1 |  | active: 10.3 µM
17 | CC(=O)Nc1cccc(NC(=S)Nc2ccc(F)cc2F)c1 | inactive: 8.95% | 
18 | O=C(NCCc1ccccc1)c1nc2c(nnn2Cc2ccccc2Cl)c(=O)[nH]1 |  | inconclusive: 25.1 µM [cytotoxic, single point]
19 | CC1(C)C2CCC1(C)C(OC(=O)C[n+]1ccccc1N)C2 (centres undefined) |  | inconclusive: 29.1 µM [rising, single point]
20 | O=C(/C=C1\NC2(CCCC2)Cc2ccccc21)C(=O)N/N=C/c1ccc(O)c(O)c1 |  | inconclusive: 25.9 µM [cytotoxic, single point]
21 | CCN1CCN(Cc2c(O)ccc3c2O/C(=C\C=C\c2ccccc2OC)C3=O)CC1 |  | inconclusive: 29.1 µM [cytotoxic, single point]
22 | COC(=O)C(CCCN1C(=O)c2ccccc2C1=O)(NC(C)=O)c1nn[nH]n1 (centres undefined) | inactive: 12.6% | 
23 | O=c1c2c(nc(NCCO)n1CC1CCCCC1)-c1ccccc1CC21CCCC1 |  | inconclusive: 29.1 µM [cytotoxic, single point]
24 | Brc1ccc2nc(C3CCCCC3)c(Cc3ccsc3)n2c1 |  | inconclusive: 23.1 µM [cytotoxic, single point]
25 | CCCS(=O)(=O)Nc1ccc(N2CCCCC2)c(S(=O)(=O)Nc2ccccc2OC)c1 | inactive: 1.34% | 

Row | SMILES | activity, negative = toxicity | Potency
26 | CCC1CCCCN1S(=O)(=O)c1ccc(NC(=O)c2nc(S(C)(=O)=O)ncc2Cl)cc1 (centres undefined) |  | active: 3.26 µM
27 | CCN(CC)CCCNC(=O)c1cc(-c2ccccc2)c(N2CCCCC2)s1 |  | inconclusive: 6.51 µM [cytotoxic, full curve, poor fit]
28 | Nc1nc(Cl)cc(Sc2ccc3ccccc3c2)n1 |  | active: 16.4 µM
29 | Cc1ccc(NC(=S)NC(=O)/C=C/c2ccc(Cl)cc2)cc1 |  | inconclusive: 18.4 µM [rising, partial curve]
30 | CC[C@]12c3[nH]c4ccc(Cl)cc4c3CCN1C(=O)[C@@H](CC(=O)NCc1cccc(C(F)(F)F)c1)C[C@@H]2C(=O)N1CCN(C(=O)c2ccco2)CC1 |  | inconclusive: 20.6 µM [cytotoxic, single point]
31 | CCC(CC)C(=O)N(CCc1ccc(OC)cc1)Cc1nc2ccccc2c(=O)[nH]1 |  | active: 7.08 µM
32 | O=C(CSc1nc2ncc(Cl)cc2[nH]1)c1ccc2c(c1)OCO2 | inactive: -8.49% | 
33 | O=C1C=C(Nc2ccccc2)c2ccccc2C1=O |  | active: 5.17 µM
34 | CCOc1cc(C=C(C(=O)OC)C(=O)OC)ccc1OCc1ccc([N+](=O)[O-])cc1 |  | active: 7.31 µM
35 | Cc1ccc2ccc3ccc(C)nc3c2n1 | inconclusive: -33.3% [cytotoxic] | 
36 | Cc1cc(C)n2c(SCc3ccc(Cl)cc3Cl)nnc2n1 |  | inconclusive: 16.4 µM [cytotoxic, single point]
37 | Brc1ccc2[nH]c3c(c2c1)CCC3 | inactive: -21.3% | 
38 | Cc1onc(-c2c(Cl)cccc2Cl)c1C(=O)NNc1ccccc1 |  | inconclusive: 4.61 µM [cytotoxic, full curve]
39 | COc1ccccc1NC(=O)C(=O)N/N=C/c1ccc([N+](=O)[O-])s1 | inactive: 0.0698% | 
40 | COc1ccc(C(=O)NCCN(C)C)c2nc3ccccc3cc12 |  | active: 20.6 µM
41 | COc1cccc(-c2sc3ccc(OC)cc3c2C#CCCO)c1 | inactive: -16.9% | 
42 | COCCOC(=O)C1=C(C)NC(=O)NC1c1cn(-c2ccccc2)nc1-c1cccs1 (centres undefined) | inactive: 1.22% | 
43 | Cc1ccn2c(NCc3ccccc3)c(-c3cccc(SC4CCCCC4)c3)nc2c1 |  | inconclusive: 18.4 µM [cytotoxic, single point] and inconclusive: 25.9 µM [cytotoxic, single point]
44 | Cc1ccsc1C=Nc1ccc(O)cc1 |  | active: 23.1 µM
45 | CCCc1nnc(NC(=O)c2ccc(S(=O)(=O)N(C)c3ccccc3OC)cc2)s1 | inactive: -5.07% | 
46 | O=C(CN1CCN(c2ccccc2F)CC1)NC(=O)NC1CCCCC1 | inactive: -2.07% | 
47 | COc1ccccc1-c1nnc(NC(=O)c2ccc(S(=O)(=O)N(C)C)cc2)o1 |  | inconclusive: 20.6 µM [cytotoxic, single point]
48 | Cc1ccnc(NC(=S)NC(=O)c2cncc(Br)c2)c1 | inactive: 0.151% | 
49 | CCOc1ccc(C2=CS/C(=C(\C#N)c3nnc4n3CCCCC4)N2CC)cc1 |  | inconclusive: 35.5 µM [cytotoxic, single point]
50 | O=C1Nc2ccccc2-n2nnnc2C1N1CCN(c2ccc(C(F)(F)F)cc2[N+](=O)[O-])CC1 (centres undefined) |  | inconclusive: 18.4 µM [cytotoxic, single point]

Row | SMILES | activity, negative = toxicity | Potency
51 | CC(C(=O)NCc1ccccc1)N(Cc1ccccc1Cl)C(=O)c1snc(C(N)=O)c1N (centres undefined) | inactive: 0.463% | 
52 | COc1ccc2c(c1)C=C(CN1CCN(Cc3ccccc3C)C(CCO)C1)CO2 (centres undefined) | inconclusive: -30.5% [cytotoxic] | 
53 | C#CCOCCOCCOCCNc1nc(N2CCN(C(=O)[C@H]([C@@H](C)CC)n3cc([C@@H](N)CC(C)C)nn3)CC2)nc(N2CCN(C(=O)[C@H](CCCCN)n3cc([C@@H](N)CO)nn3)CC2)n1 | inactive: 1.16% | 
54 | C=CC(=O)Nc1ccc(N(C)c2ccnc(Nc3ccc(N4CCN(C)CC4)cc3)n2)cc1 | inactive: -22.5% | 
55 | Cc1cc(S(=O)(=O)NCc2ccc(N3CCN(C)CC3)cc2)c(C)s1 | inactive: 12.5% | 
56 | COc1ccc(-n2c(-c3ccc(Cl)cc3)c[n+]3c2CCCCC3)cc1 |  | inconclusive: 18.4 µM [cytotoxic, partial curve]
57 | COc1ccc(-c2nc3c(C(=O)NCCN(C)C)cccc3c3ccccc23)cc1 |  | inconclusive: 25.9 µM [cytotoxic, single point]
58 | Cc1ccccc1N/C(=C(/C(Cl)=C(Cl)Cl)[N+](=O)[O-])n1nnc2ccccc21 |  | inconclusive: 35.5 µM [cytotoxic, single point]
59 | c1ccc2c(c1)NC1(CCCCC1)n1c-2nc2ccccc21 | inconclusive: -4.39% | 
60 | COC(=O)c1ccccc1NC(=O)c1ccc(COc2cccc3ccccc23)o1 | inactive: -0.844% | 
61 | Cc1ccc(OCC(=O)NCCCNC(=O)c2cccnc2)cc1C |  | active: 18.4 µM
62 | COc1cc(/C=C(\C#N)c2nc3ccccc3[nH]2)ccc1Oc1ccc([N+](=O)[O-])cn1 |  | inconclusive: 35.5 µM [cytotoxic, single point]
63 | CS(=O)(=O)c1ccc(S(=O)CC(=O)Oc2ccc(Cl)cc2)c([N+](=O)[O-])c1 (centres undefined) |  | active: 18.4 µM
64 | CCN(CC)c1ccc(/C=N/NC(=O)c2cc(C)nc3ccccc23)cc1 |  | inconclusive: 4.11 µM [cytotoxic, full curve]
65 | CCCCn1c(=NC(=O)c2ccc3c(c2)OCO3)c(C#N)cc2c(=O)n3cccc(C)c3nc21 | inactive: 3.66% [at 9.24 µM] | 
66 | NC(Cc1ccc(Cl)cc1)c1csc(NC(=O)NCCc2ccccc2)n1 (centres undefined) |  | inconclusive: 23.1 µM [cytotoxic, single point]
67 | Cc1ccc(NC(=O)c2ccccc2O)cc1 |  | inconclusive: 29.1 µM [cytotoxic, single point]
68 | COC(=O)c1cc(Cl)c(NC(=O)c2ccc(C(C)(C)C)cc2)cc1OC |  | active: 11.2 µM
69 | COc1ccc(CNC(=O)c2cc3cc(OC)ccc3oc2=O)cc1 | inconclusive: -17.6% [cytotoxic] | 
70 | COc1ccc(CCNCc2ccc(-c3ccccc3)cc2)cc1OC |  | active: 23.1 µM
71 | Cc1cccc(C)c1-n1c(C)cc(/C=N\NC(=O)CC(=O)NC2CCCCC2)c1C |  | inconclusive: 29.1 µM [cytotoxic, single point]
72 | CC(=O)N1CCCc2cc(S(=O)(=O)N3CCCC(C(=O)N4CCN(c5ccccc5)CC4)C3)ccc21 (centres undefined) | inactive: -2.27% | 
73 | COc1cc(CNCc2ccco2)cc(OC)c1O | inconclusive: 33% | 
74 | O=C(CCl)N(C1CCCC1)C1CCS(=O)(=O)C1 (centres undefined) |  | inconclusive: 23.1 µM [cytotoxic, single point]
